Laboratory results reported in PubChem BioAssay AID463173 (ICCB-Longwood Screening Facility, Harvard Medical School, 2010).
The whole screen tested about 52,000 compounds, of which about 1,700 (3.3%) were called active. Cut-off read from the data, not from the text of the source: active = survival mostly below about 52% (no sharp cut-off); inactive = mostly above about 56%. The list shows a part of the results.

tested on: Wild type; experiment: S. aureus survival, RN4220 and DeltatarO strains – OD600, teichoic acid synthesis inhibitors, primary screen (AID 463173); conditions: S. aureus RN4220 wild type/DeltatarO growth, OD600, 18 h, hits give low values, screened at 18.75 µg/mL (by protocol)

Question: How did the survival turn out when `Cc1ccc2nc(C(=O)O)c(C(=O)O)nc2c1` was run?
Answer: The survival was inactive: 108%.

Question: With `COc1ccccc1CNC(=O)c1ccc2c(c1)sc1nc(-c3ccc(F)cc3)cn12` as the compound, how does the survival read?
Answer: Its survival is inactive: 71%.

Question: With `COc1cccc(CNC(=O)c2cc(=O)[nH]c3ccc(S(=O)(=O)N4CCCCC4)cc23)c1` as the compound, how does the survival read?
Answer: Its survival is inactive: 85%.

Question: With `Cc1ccc(Cl)cc1NC(=O)CN(C)S(=O)(=O)c1ccc2c(c1)n(C)c(=O)c(=O)n2C` as the compound, how does the survival read?
Answer: Its survival is inactive: 88%.

Question: For `Cc1cccc(C)c1Nc1c(-c2ccc(Cl)s2)nc2ncccn12`, which survival is on record?
Answer: The survival was inactive: 26%.

Question: With `COc1ccc(CCNC(=O)c2cc(-c3ccccc3)nc3ccccc23)cc1OC` as the compound, how does the survival read?
Answer: Its survival is inactive: 77%.

Question: Which survival does the source give for `CCn1cc(C(=O)OCC(=O)Nc2cc(C)cc(C)c2)c(=O)c2ccc(C)nc21` here?
Answer: Its survival is inactive: 66%.

Question: Which survival does the source give for `COC(=O)c1scc(-c2ccc(C)cc2)c1S(=O)(=O)Nc1cccc(C(F)(F)F)c1` here?
Answer: Its survival is inactive: 124%.

Question: With `Cc1nn(CCCC(=O)NCc2ccccc2)c(=O)c2nn(-c3ccccc3)c(C)c12` as the compound, how does the survival read?
Answer: The survival was inactive: 22%.

Question: With `COc1cc(CN2CCC(N)CC2)cc(OC)c1OC` as the compound, how does the survival read?
Answer: Its survival is inactive: 94%.

Question: For `COC(=O)c1sc2cccc(F)c2c1S(=O)(=O)Nc1cc(OC)cc(OC)c1`, which survival is on record?
Answer: Its survival is active: 0%.

Question: For `O=C(CSc1nc2ccccc2c(=O)n1CCC(=O)NC1CCCCC1)Nc1ccccc1Cl`, which survival is on record?
Answer: The survival was inactive: 81%.

Question: How did the survival turn out when `CCc1nnc2c(NCc3ccccc3OC)nc3ccccc3n12` was run?
Answer: Its survival is inactive: 121%.

Question: With `O=C(CSc1cn(CC(=O)N2CCCCCC2)c2ccccc12)Nc1ccccc1F` as the compound, how does the survival read?
Answer: Its survival is inactive: 96%.

Question: With `CC(C)c1nnc(N2C(=O)c3oc4ccccc4c(=O)c3C2c2cccc(O)c2)s1` (configuration not stated) as the compound, how does the survival read?
Answer: The survival was inactive: 75%.

Question: For `CCOc1ccc(CC(=O)Nc2nnc3n2CCS3)cc1`, which survival is on record?
Answer: The survival was inactive: 70%.

Question: For `CCC(=O)N1CCc2cc(S(=O)(=O)NCCC(=O)Nc3ccc(OC)c(Cl)c3)ccc21`, which survival is on record?
Answer: The survival was inactive: 92%.

Question: `CCN(C(=O)C1CCN(S(=O)(=O)c2ccc3c(c2)CCCN3C(=O)C2CCC2)CC1)c1cccc(C)c1` was tested. Which survival did it give?
Answer: Its survival is inactive: 138%.

Question: For `Cc1ccc(NC(=O)Cn2c(=O)n(CCCCCC(=O)NCc3ccc(F)cc3)c(=O)c3sccc32)c(C)c1`, which survival is on record?
Answer: The survival was inactive: 98%.

Question: `Cc1c(Cl)cccc1NC(=O)c1cnc2sc(N3CCCC3)nn2c1=O` was tested. Which survival did it give?
Answer: Its survival is inactive: 74%.

Question: For `COCCN1Cc2cccc(C(=O)Nc3ccc(C)cc3C)c2C1=O`, which survival is on record?
Answer: Its survival is inactive: 80%.

Question: `COC(=O)CNC(=O)C(Cc1ccccc1)NS(=O)(=O)c1ccc2c(c1)c(=O)n(C)c(=O)n2C` (configuration not stated) was tested. Which survival did it give?
Answer: Its survival is inactive: 78%.

Question: `Cc1c(C(=O)NCc2ccc(N(C)C)cc2)oc2c1-c1nn(Cc3cccc(Cl)c3)cc1CC2` was tested. Which survival did it give?
Answer: Its survival is inactive: 91%.

Question: How did the survival turn out when `O=C(COc1ccccc1)Nc1ccc(S(=O)(=O)N(Cc2ccccc2)c2ccccc2)cc1` was run?
Answer: Its survival is inactive: 86%.

Question: `COc1ccc(CCCc2n[nH]c(=S)o2)c(C)c1` was tested. Which survival did it give?
Answer: Its survival is inactive: 104%.

Question: `Cc1cc2c(cc1S(=O)(=O)N1CCC(C)CC1)OCC(=O)N2` was tested. Which survival did it give?
Answer: Its survival is inactive: 86%.

Question: For `COc1ccc(-c2nc(-c3ccccc3)c(-c3ccccc3)[nH]2)cc1Br`, which survival is on record?
Answer: The survival was inactive: 81%.

Question: `Cc1ccc(-c2nnc(SCC(=O)N3CCc4ccccc43)o2)cc1` was tested. Which survival did it give?
Answer: Its survival is inactive: 84%.

Question: Which survival does the source give for `Cc1cc(C)cc(NC(=O)Cn2c(=O)oc3cc(S(=O)(=O)N4CCCC4)ccc32)c1` here?
Answer: Its survival is inactive: 158%.

Question: Which survival does the source give for `COc1ccc(S(=O)(=O)c2cn(C)c3cc(N4CCCC4)c(F)cc3c2=O)cc1` here?
Answer: The survival was inactive: 69%.

Question: How did the survival turn out when `COc1cccc(CNC(=O)c2cnc(N3CCCC3)nc2C)c1` was run?
Answer: Its survival is inactive: 73%.

Question: `O=S(=O)(c1ccc2ccccc2c1)n1nc(-c2ccco2)nc1NCc1cccc(Cl)c1` was tested. Which survival did it give?
Answer: Its survival is inactive: 89%.

Question: With `Cc1ccc(CNC(=O)c2ccc3c(c2)N(Cc2ccccc2F)C(=O)c2ccccc2S3(=O)=O)cc1` as the compound, how does the survival read?
Answer: The survival was inactive: 90%.

Question: Which survival does the source give for `O=C(O)c1cc(C2CC2)on1` here?
Answer: The survival was inactive: 117%.

Question: Which survival does the source give for `Cc1ccc(C(C(=O)NC2CC2)N(C(=O)Cn2nnc(-c3cccs3)n2)c2cnc3ccccc3c2)o1` (configuration not stated) here?
Answer: The survival was inactive: 121%.

Question: Which survival does the source give for `O=C1SCC(c2ccccc2)S1` (configuration not stated) here?
Answer: Its survival is inactive: 111%.

Question: How did the survival turn out when `CCOc1cc(CNCCSc2nnnn2-c2ccccc2)cc(Cl)c1OC` was run?
Answer: The survival was inactive: 85%.

Question: How did the survival turn out when `CC(C)Oc1ccc(CNS(=O)(=O)c2cnc(N)nc2)cc1` was run?
Answer: The survival was inactive: 111%.

Question: With `CN1CCN(C(CNC(=O)C(=O)Nc2ccc(F)cc2F)c2ccc3c(c2)OCO3)CC1` (configuration not stated) as the compound, how does the survival read?
Answer: The survival was inactive: 66%.

Question: `CCOc1ccc(CCNC(=O)Cn2nnc(-c3ccc(OC)c(OC)c3)n2)cc1OCC` was tested. Which survival did it give?
Answer: The survival was inactive: 90%.

Question: For `Cc1ccc2nc(-c3ccc(NC(=O)COc4c(C)ccc(C)c4C)cc3)sc2c1`, which survival is on record?
Answer: The survival was inactive: 62%.

Question: How did the survival turn out when `Cc1c(C(=O)O)nnn1-c1ccccc1` was run?
Answer: The survival was inactive: 100%.

Question: How did the survival turn out when `COc1cc(NC(=O)c2nnn(CC(=O)Nc3ccccc3)c2N)cc(OC)c1` was run?
Answer: Its survival is inactive: 80%.

Question: For `CCCc1nn2c(=O)cc(COC(=O)c3ccc(NC(=O)C(C)Oc4ccccc4)cc3)nc2s1` (configuration not stated), which survival is on record?
Answer: The survival was inactive: 88%.

Question: How did the survival turn out when `c1ccc(C2=NN3COc4ccccc4C3C2)cc1` (configuration not stated) was run?
Answer: The survival was inactive: 92%.

Question: `CCCCNc1nc(Oc2ccc(=O)n(C)n2)nc(N(C)C)n1` was tested. Which survival did it give?
Answer: Its survival is inactive: 83%.

Question: With `COc1ccc(S(=O)(=O)N2C3CCC2CC(NC(=O)NC2CCCCC2)C3)cc1` (configuration not stated) as the compound, how does the survival read?
Answer: The survival was inactive: 98%.

Question: For `CSc1nc(-c2ccc(F)cc2)nc2c1Cc1c(CO)cnc(C)c1O2`, which survival is on record?
Answer: The survival was inactive: 81%.

Question: With `O=C(NC1CCCCC1)c1ccc2c(c1)N(Cc1ccccc1)C(=O)c1ccccc1S2` as the compound, how does the survival read?
Answer: Its survival is inactive: 64%.

Question: With `O=C(CN1C(=O)C2(SCC(=O)N2c2ccccc2)c2ccccc21)NCc1ccccc1Cl` (configuration not stated) as the compound, how does the survival read?
Answer: The survival was inactive: 97%.

Question: For `COc1ccc(C(=O)c2cn(Cc3ccc(C)cc3)c3cc4c(cc3c2=O)OCO4)cc1`, which survival is on record?
Answer: The survival was inactive: 132%.

Question: Which survival does the source give for `COc1cc(NC(=O)CCS(=O)(=O)c2nc(-c3cccs3)cc(C(F)(F)F)n2)cc(OC)c1OC` here?
Answer: The survival was inactive: 78%.

Question: For `COc1ccccc1-c1noc(CSc2nc3ccc(C)cc3[nH]2)n1`, which survival is on record?
Answer: Its survival is inactive: 118%.

Question: Which survival does the source give for `O=C(CSc1cn(CC(=O)N2CCCCC2)c2ccccc12)Nc1ccccc1F` here?
Answer: The survival was inactive: 89%.

Question: For `Cc1ccc2c(CC(=O)Nc3ccccc3C(F)(F)F)coc2c1C`, which survival is on record?
Answer: The survival was inactive: 93%.

Question: With `CC(CNC(=O)C1CCN(Cc2cc3ccccc3n2Cc2ccccc2)CC1)c1ccccc1` (configuration not stated) as the compound, how does the survival read?
Answer: The survival was inactive: 60%.

Question: Which survival does the source give for `Cc1c(Cl)cccc1NC(=O)CCn1c(=O)c2cccn2c2ccccc21` here?
Answer: The survival was inactive: 77%.
